{"source": "PubChem BioAssay AID2147", "about": "(National Center for Advancing Translational Sciences (NCATS), 2009)", "note": "Several values for one entry are separate records, joined by “and”; a condition that tells them apart may be missing. Equal values may be shown once. Out of some 230,000 compounds screened, about 3,600 (1.6%) were called active. This list was built around the results that the source calls inconclusive (neither active nor inactive); the mix of calls is not that of the screen. Calls come from the whole dose curve; as a rule, active = well fitted inhibition curve with a large enough effect (not every such curve was filed as active); inconclusive = small, poorly fitted or top-dose-only effect, or another doubt; inactive = no such curve, though single readings can be large or run the other way. Potencies of inconclusive entries are doubtful fits and often do not repeat. Note: nearly all actives have a fitted effect of over 50% in size. Potency is the fitted concentration of half-maximal effect; tags give direction and shape of the fitted curve.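 Throughout, for activity change, negative = inhibition: 0% = wells with enzyme and -100% = buffer wells without enzyme.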"}
{"molecular_target": "Lysine-specific demethylase 4E (Homo sapiens) (UniProt B2RXH2)", "sequence (B2RXH2 whole entry, looked up, the tested form may be a part)": "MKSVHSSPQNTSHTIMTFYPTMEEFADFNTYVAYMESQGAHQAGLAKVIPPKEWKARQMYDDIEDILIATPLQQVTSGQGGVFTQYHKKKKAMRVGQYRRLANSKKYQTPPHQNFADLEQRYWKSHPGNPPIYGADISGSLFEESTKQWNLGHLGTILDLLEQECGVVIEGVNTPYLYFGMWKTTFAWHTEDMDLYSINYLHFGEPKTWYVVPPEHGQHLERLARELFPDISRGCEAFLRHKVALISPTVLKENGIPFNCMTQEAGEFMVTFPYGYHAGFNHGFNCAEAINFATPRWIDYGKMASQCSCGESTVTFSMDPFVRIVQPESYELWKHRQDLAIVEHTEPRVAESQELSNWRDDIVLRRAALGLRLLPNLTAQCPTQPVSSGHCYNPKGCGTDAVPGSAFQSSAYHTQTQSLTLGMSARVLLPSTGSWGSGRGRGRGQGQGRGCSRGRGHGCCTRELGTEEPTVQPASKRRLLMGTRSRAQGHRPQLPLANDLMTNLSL", "assay": "qHTS Assay for Inhibitors of Human Jumonji Domain Containing 2E (JMJD2E)", "settings": "JMJD2E catalytic domain, FDH-coupled NADH fluorescence (FDH is formaldehyde dehydrogenase); series mostly up to 57.1 µM"}
{"smiles": "O=C(N/N=C/c1ccc(O)cc1O)c1ccc(CN2C(=O)c3cccc4cccc2c34)cc1", "Potency": "inconclusive: 35.5 µM [inhibitor, single point]"}
{"smiles": "CCc1nnc(NC(=O)c2ccc(-c3ccccc3F)o2)s1", "Potency": "inconclusive: 25.1 µM [inhibitor, partial curve]"}
{"smiles": "CCCC(=O)Nc1cc(C(=O)O)ccc1S(=O)(=O)c1ccc(Cl)cc1", "Potency": "inactive"}
{"smiles": "Cc1cc(=O)oc2cc(OCC(=O)N3CCCC(C)C3)ccc12", "note": "(stereo unspecified)", "Potency": "inconclusive: 28.2 µM [inhibitor, partial curve]"}
{"smiles": "CCN(CC)CC(O)Cn1c(-c2cccc(Cl)c2)nc2cc(C)c(C)cc21", "note": "(stereo unspecified)", "Potency": "inconclusive: 28.2 µM [inhibitor, partial curve]"}
{"smiles": "Cc1sc2nc(-c3cccs3)nc(N3CCCN(C)CC3)c2c1C", "Potency": "inconclusive: 22.4 µM [inhibitor, partial curve]"}
{"smiles": "Cn1cccc1/C=N/NC(=O)C(O)c1ccccc1", "note": "(stereo unspecified)", "Potency": "active: 25.1 µM"}
{"smiles": "O=C(COc1ccccc1)Nc1ccc(S(=O)(=O)N2CCCC2)cc1", "Potency": "inactive"}
{"smiles": "C/C=C(/C)C(=O)O[C@@H]1c2c(ccc3ccc(=O)oc23)O[C@@H]1C(C)(C)OC(C)=O", "Potency": "inconclusive: 31.6 µM [inhibitor, partial curve]"}
{"smiles": "O=C1c2oc3ccccc3c(=O)c2C(c2cccs2)N1CCCN1CCOCC1", "note": "(stereo unspecified)", "Potency": "inconclusive: 39.8 µM [inhibitor, single point]"}
{"smiles": "COc1ccccc1CC(=O)O/N=C(\\N)Cc1cccc2ccccc12", "Potency": "inconclusive: 25.1 µM [inhibitor, single point]"}
{"smiles": "Cc1ccccc1NC(=O)CSc1nnc(-c2ccco2)c(-c2ccco2)n1", "Potency": "inconclusive: 35.5 µM [inhibitor, single point]"}
{"smiles": "O=C(O)C1CSC2(CCN(Cc3ccccc3)CC2)N1", "note": "(stereo unspecified)", "Potency": "inactive"}
{"smiles": "c1csc(CNc2ccc3c(c2)OCCO3)c1", "Potency": "inconclusive: 22.4 µM [inhibitor, single point]"}
{"smiles": "Cc1ccc(C(=O)NCC(=O)OC(C)C(=O)Nc2ccc(N(C)C)cc2)s1", "note": "(stereo unspecified)", "Potency": "inactive"}
{"smiles": "COCCCN1CCN(C2Cc3ccccc3Sc3ccc(Cl)cc32)CC1", "note": "(stereo unspecified)", "Potency": "inconclusive: 39.8 µM [inhibitor, single point]"}
{"smiles": "CCC(c1nnnn1CCOC)N1CCN(C(=O)c2ccco2)CC1", "note": "(stereo unspecified)", "Potency": "inactive"}
{"smiles": "CCOC(=O)Oc1ccc2c(=O)c(Oc3cccc(C)c3)coc2c1", "Potency": "inconclusive: 39.8 µM [inhibitor, single point]"}
{"smiles": "CN(C)c1ccc(P(=O)(OCc2ccccc2)C(O)c2ccncc2)cc1", "note": "(stereo unspecified)", "Potency": "active: 20 µM"}
{"smiles": "C[C@@H](Oc1ccc(Oc2cnc3ccc(Cl)cc3n2)cc1)C(=O)O", "Potency": "inactive"}
{"smiles": "Cc1ccc2[nH]c3c(=O)n(CCc4cnc[nH]4)cnc3c2c1", "Potency": "inconclusive: 28.2 µM [inhibitor, partial curve]"}
{"smiles": "O=c1c(Cc2ccc(Cl)cc2)c(O)ccn1Cc1cccc(Cl)c1", "Potency": "inactive"}
{"smiles": "COc1ccc(N/C=C2\\CCc3ccccc3C2=O)cc1", "Potency": "inactive"}
{"smiles": "Cc1cccc(C(=O)N/N=C/c2cc(Br)c(Br)o2)c1", "Potency": "inactive"}
{"smiles": "Cc1cccc(N(CC(=O)Nc2ccc(-c3nc4ccc(C)cc4s3)cc2)S(C)(=O)=O)c1", "Potency": "inconclusive: 28.2 µM [inhibitor, partial curve]"}
{"smiles": "Cc1nc2ccccc2nc1N/N=C/c1ccc(O)cc1", "Potency": "inconclusive: 39.8 µM [inhibitor, single point]"}
{"smiles": "C=CCOC(=O)C1=C(C)NC(C)=C(C(=O)OCC=C)C1c1ccc(O)cc1", "Potency": "inconclusive: 31.6 µM [inhibitor, partial curve]"}
{"smiles": "COC(=O)c1cc(NC(=O)c2c(Cl)nc3sccn23)cc(C(=O)OC)c1", "Potency": "inconclusive: 39.8 µM [inhibitor, single point]"}
{"smiles": "CSc1c(CC(=O)NCCO)n(C)c2ccccc12", "Potency": "inconclusive: 31.6 µM [inhibitor, single point]"}
{"smiles": "COc1ccc(C=NCCCN2CCOCC2)cc1", "Potency": "inconclusive: 39.8 µM [inhibitor, single point]"}
{"smiles": "O=C(O)c1sc2cc(C(F)(F)F)cnc2c1-c1cccs1", "Potency": "inconclusive: 31.6 µM [inhibitor, partial curve]"}
{"smiles": "CCOC(=O)[C@@]12C[C@@H]1/C(=N/O)c1ccccc1O2", "Potency": "inconclusive: 25.1 µM [inhibitor, partial curve]"}
{"smiles": "COc1ccc(C(=O)N=c2sc3ccccc3n2C)cc1OC", "Potency": "inconclusive: 35.5 µM [inhibitor, partial curve]"}
{"smiles": "NC(Cc1cc(I)c(Oc2cc(I)c(O)c(I)c2)c(I)c1)C(=O)O", "note": "(stereo unspecified)", "Potency": "inactive"}
{"smiles": "C(=N\\Nc1ccccn1)/c1ccc(N2CCOCC2)cc1", "Potency": "inactive"}
{"smiles": "CC1CCCN(Cc2c(O)ccc3c4c(c(=O)oc23)CCCC4)C1", "note": "(stereo unspecified)", "Potency": "inconclusive: 28.2 µM [inhibitor, partial curve]"}
{"smiles": "Cc1ccc(OCCC(=O)N2CCN(c3ccc(O)cc3)CC2)cc1", "Potency": "inactive"}
{"smiles": "COc1cc2c(cc1OC)CN(Cc1cccs1)CC2", "Potency": "inconclusive: 35.5 µM [inhibitor, single point]"}
{"smiles": "Cc1ccc2oc(-c3ccc(C)c(NC(=S)NC(=O)c4cccs4)c3)nc2c1", "Potency": "inconclusive: 31.6 µM [inhibitor, partial curve]"}
{"smiles": "CCOc1ccc(NC(=O)NCC2CCN(c3ccc(OC)cc3)C2)cc1", "note": "(stereo unspecified)", "Potency": "inactive"}
{"smiles": "COC(=O)C1=CN(Cc2cccs2)C=C(C(=O)OC)C1c1cccc(Cl)c1", "Potency": "inconclusive: 31.6 µM [inhibitor, partial curve]"}
{"smiles": "CN(C)c1ccc(/C=N/n2c(-c3ccccc3Br)n[nH]c2=S)cc1", "Potency": "inconclusive: 28.2 µM [inhibitor, single point]"}
{"smiles": "COc1ccc(C(NC(=O)c2cccnc2)c2cc(Cl)c3cccnc3c2O)cc1OC", "note": "(stereo unspecified)", "Potency": "inactive"}
{"smiles": "C=CCN1c2ccccc2[C@]23C[C@@H](C(=O)OC)N(S(=O)(=O)c4ccc(C)cc4)C2=NC(C(=O)OC)=C(C(=O)OC)[C@H]13", "activity change, negative = inhibition": "inactive: -3.23% [at 11.4 µM]"}
{"smiles": "CC(C)c1ccc(/C=C2\\CC/C(=C\\C=N\\N(C)C)C2=O)cc1", "Potency": "inconclusive: 3.55 µM [inhibitor, partial curve, poor fit]"}
{"smiles": "O=C(O)CSc1cccc2cccnc12", "Potency": "inconclusive: 794 nM [inhibitor, single point] and inconclusive: 20 µM [inhibitor, partial curve]"}
{"smiles": "c1ccc(-c2noc(-c3ccc4ccccc4c3)n2)nc1", "Potency": "inconclusive: 35.5 µM [inhibitor, partial curve]"}
{"smiles": "Cc1cccc(NC(=S)NNC(=O)c2ccccc2OC(F)F)c1", "Potency": "inactive"}
{"smiles": "COc1cc2[nH]c(=S)n(C3CCCC3)c(=O)c2cc1OC", "Potency": "inactive"}
{"smiles": "COc1ccc2nc(NNC(=O)COc3ccccc3)sc2c1", "Potency": "inconclusive: 31.6 µM [inhibitor, single point]"}
{"smiles": "Cc1ccc(NC(=O)N(CCCN2CCOCC2)Cc2cc3cc4c(cc3[nH]c2=O)OCO4)cc1", "Potency": "inconclusive: 31.6 µM [inhibitor, partial curve]"}
{"smiles": "CC(C)(C)c1ccc(Cn2nnc3c(=O)[nH]c(C4CCCN(C(=O)Cc5cccs5)C4)nc32)cc1", "note": "(stereo unspecified)", "Potency": "inactive"}
{"smiles": "CC(C)CCNC(=O)C(CC(C)C)N(Cc1ccc2c(c1)OCO2)C(=O)c1snc(C(N)=O)c1N", "note": "(stereo unspecified)", "Potency": "inconclusive: 25.1 µM [inhibitor, single point]"}
{"smiles": "CC(=O)C1=C(C)OC2(O)c3ccccc3C(=O)C12O", "note": "(stereo unspecified)", "Potency": "inconclusive: 14.1 µM [inhibitor, partial curve]"}
{"smiles": "COc1ccc(Cn2c3nc4ccccc4nc3c3c(=O)n(Cc4ccco4)c(C)nc32)cc1", "Potency": "inconclusive: 28.2 µM [inhibitor, partial curve]"}
{"smiles": "Cc1nn(C)cc1S(=O)(=O)Nc1ccc2c(c1)OCCO2", "Potency": "inactive"}
{"smiles": "COc1ccccc1CNc1ncnc2cc(Cl)ccc12", "Potency": "inconclusive: 35.5 µM [inhibitor, single point]"}
{"smiles": "Cn1c(C(C#N)C(=O)c2ccco2)nc2ccccc21", "note": "(stereo unspecified)", "Potency": "inconclusive: 39.8 µM [inhibitor, single point]"}
{"smiles": "Cc1ccc(N2CC(C(=O)Nc3ccccc3C(=O)NC3CCCCC3)CC2=O)cc1", "note": "(stereo unspecified)", "Potency": "inconclusive: 39.8 µM [inhibitor, single point]"}
{"smiles": "Cc1cccc(S(=O)(=O)Nc2ccc(-c3nc4ccc(C)cc4s3)cc2)c1", "Potency": "inconclusive: 31.6 µM [inhibitor, partial curve]"}
{"smiles": "Cc1nnc(C)c2c(C)n(-c3cccc4cccnc34)c(C)c12", "Potency": "inconclusive: 11.2 µM [inhibitor, partial curve]"}
{"smiles": "O=C(COc1cccc2ccccc12)N1c2ccccc2CCc2ccccc21", "Potency": "inconclusive: 39.8 µM [inhibitor, single point]"}
{"smiles": "CC1CCC2(CC1)NC(=O)N(CC(=O)c1cn(CCC#N)c3ccccc13)C2=O", "note": "(stereo unspecified)", "Potency": "inactive"}
{"smiles": "COc1ccc(S(=O)(=O)N(C(=O)c2ccco2)c2cc3sc(=O)oc3c3ccccc23)cc1", "Potency": "active: 12.6 µM"}
{"smiles": "Cc1cc(-c2cccs2)c(C#N)c(=S)[nH]1", "Potency": "inconclusive: 39.8 µM [inhibitor, single point]"}
{"smiles": "CN1CCc2c(sc3c2c(NCc2ccco2)nc2nnnn23)C1", "Potency": "inconclusive: 35.5 µM [inhibitor, single point]"}
{"smiles": "O=c1cc(N2CCCCC2)c(-c2ccccc2)nn1Cc1ccc(Cl)cc1Cl", "Potency": "inactive"}
{"smiles": "CCC(=O)Nc1sc(C(=O)Nc2ccccc2F)c(C)c1C(=O)OC", "Potency": "inconclusive: 39.8 µM [inhibitor, single point]"}
{"smiles": "N#CC1=C(N)Nc2nc3ccccc3n2C1c1ccc(F)cc1", "note": "(stereo unspecified)", "Potency": "inconclusive: 28.2 µM [inhibitor, single point]"}
{"smiles": "O=C(OCc1ccco1)c1ccc(S(=O)(=O)N2CCCCC2)cc1", "Potency": "inactive"}
{"smiles": "Cc1nc2c(C(=O)N3CCN(C)CC3)cnn2c(C)c1Cc1ccc(Cl)cc1", "Potency": "inconclusive: 25.1 µM [inhibitor, partial curve]"}
